The chains are these.
B1: chr11:35642274:35642275:-_ENSMUSG00000018848_ENSMUST00000018992|mus_mus|motif|central (ssRNA)
RNA: GGGAGUUCUACAGUCCGACGAUCCUGCUGACUUGGUGUCACGAUCAGGGGAGGGUUCUCCAAGUCUGGAUAUGCAGCCCGGAUGGCACAGCCAAAGACUUCCUGCAGGCGGCUGUUGAUGUUAAUCAUGUUUUUAGUUGGUUUCAACAGAGGAUUGAGCAUCA
B2: chr7:102090678:102090679:+_ENSG00000160991_ENST00000478730|hu_hu|FALSE|FALSE (ssRNA)
RNA: GGGAGUUCUACAGUCCGACGAUCAGCCAGCCUGUCUUCUUGACCCAAAGCCACUCCUUGGAGGAACGCUGACAUGCUGACAUUCUUUUUUCUUUAUUUUCUUUUUUUUUUUUUUAGAGACAGGGUCUCACUCUGUCACCCAGGCAACAGAGGAUUGAGCAUCA
B3: chr14:89307221:89307222:+_ENSG00000165533_ENST00000346301|hu_mus|hu_hu_hu_mus_False|28_58 (ssRNA)
RNA: GGGAGUUCUACAGUCCGACGAUCUCCUGUUUGGUUAGUGCCAGGGAGCUUCAAAGAUGUGCCAGGGCGUGGGACCUGAGCUAUAGCAUUUUCAUCCAGGAUCAUUUCUGCAAUUCCUUCCUGGUCCACAUCAAUUUCAUCUAUCAACAGAGGAUUGAGCAUCA
B4: chr14:79828021:79828022:+_ENSMUSG00000043881_ENSMUST00000061222|mus_mus|FALSE|FALSE (ssRNA)
RNA: GGGAGUUCUACAGUCCGACGAUCAGGAUCAUAGCAGAGCAUGCGCUUACUGUUGACAGCGUAAAGAUAAUUCUGAACCACUAUUAGUUCAAAUGAAUAAAAGGAAUGUGGUACAGGAGCCACCAAUGCCCAUUGGUUCCUCUGCAACAGAGGAUUGAGCAUCA
B5: chr7:81084073:81084074:-_ENSMUSG00000025789_ENSMUST00000026896|mus_hu|motif|central (ssRNA)
RNA: GGGAGUUCUACAGUCCGACGAUCAGGAUUUAAUCCAACAAACAUUUAUUGAGCAACUGCUGUGUGCUAUGCACCACGCCGGGUGCUGUGAUGGAUACAGAUGAAUAAAACACAGUCCCUGCCCUUGGCAAGCUUACAGUCUAACAACAGAGGAUUGAGCAUCA
B6: chr2:210598762:210598763:+_ENSG00000078018_ENST00000392194|hu_mus|FALSE|FALSE (ssRNA)
RNA: GGGAGUUCUACAGUCCGACGAUCGCAAAACAAUCACUAUACAGCAACAAAUACAUUUGCAAAUUGAUUGAAAAACAUGAACUAACUACAACCAGCCAUUGAAGAAAUACCUUUCUAUGGUAACAGGCUCUAGAAUUAUCAGAACAACAGAGGAUUGAGCAUCA
B7: chr19:8913615:8913616:-_ENSMUSG00000071658_ENSMUST00000096259|mus_hu|mus_mus_mus_hu_False|8_68 (ssRNA)
RNA: GGGAGUUCUACAGUCCGACGAUCAGGGUACCAAAACCUUCUGCCUGAAAUGGGUGCCCCACCCAGUCAGGACUUGGAGCUGAAAGUAUCUGAUGCAGAAGCAGUGACUAUACGAAAGGAGGCCCCUGAUGCUCAGAAGGCCAGCAACAGAGGAUUGAGCAUCA
B8: chr5:32761720:32761721:+_ENSMUSG00000014956_ENSMUST00000015100|mus_mus|motif|central (ssRNA)
RNA: GGGAGUUCUACAGUCCGACGAUCAGGCUGUCCACGUUCAGCUCCCCGUCCGCCAUCUUGUCGGCACCAGACUCUCCUCCCGGAAGCGUUAACAGGGCUUCUCGGCGGCGGCGGCGGCUCGGCGUUCUCACCUACGAGUCACGCCAACAGAGGAUUGAGCAUCA
B9: chrX:98838459:98838460:+_ENSMUSG00000034160_ENSMUST00000044475|mus_hu|FALSE|FALSE (ssRNA)
RNA: GGGAGUUCUACAGUCCGACGAUCCCCCAAAUUCGAAUAAGCUUCUGCCAGAAGGGGGUUCUGUUUAAUUGCCAGAGUGCUAAAGUGAGCAGAUCUGUCCAGCCUUCGACACUGGAAGUGUAUAGAUGAAAGUAAUAAAAGCACCAACAGAGGAUUGAGCAUCA
B10: chr4:11888808:11888809:-_ENSMUSG00000049225_ENSMUST00000108301|mus_hu|FALSE|FALSE (ssRNA)
RNA: GGGAGUUCUACAGUCCGACGAUCGUGCUUGUGCCACUGGAGAAUGGGUAGCAGUGCCCGGCCGCUCUCCACUGCAUUUUCAAUCUCUAGCAAAGUCUCAUGGGGUAACAAAGAGACAGCAAUAUAAUAAAAGAGUCUUUCACUCAACAGAGGAUUGAGCAUCA
B11: chr11:77340908:77340909:-_ENSG00000074201_ENST00000525064|hu_hu|hu_hu_hu_mus_True|18_108 (ssRNA)
RNA: GGGAGUUCUACAGUCCGACGAUCGUUUCGGUCCCUGGACACCGCAUGUAAACUAAUGGUGGGGUAUUCCAGUGAGAAUCCUAAUCCCGAACCAUCUAACCAGGACAGGCGGCUCUCAGCGAUGUAAAGCGUGCCGGUGCCGAGCAACAGAGGAUUGAGCAUCA
B12: chr14:22137345:22137346:+_ENSMUSG00000039197_ENSMUST00000045376|mus_mus|motif|central (ssRNA)
RNA: GGGAGUUCUACAGUCCGACGAUCAAAGAGGAUAUCAACAUAAGGCAUGACGUCCAUCAAGGCUUCCUUGAAGAACUGGCGGAUGAACGGUGCAGACAGGUUCAAAGUGAAGACCCUGUUGUUCUCGGCAGCAUAGCGAGCCACCAACAGAGGAUUGAGCAUCA
B13: chr17:56552419:56552420:-_ENSMUSG00000013236_ENSMUST00000086828|mus_mus|mus_mus_mus_hu_False|98_108 (ssRNA)
RNA: GGGAGUUCUACAGUCCGACGAUCAAAGUUUUUUUCUUAAAAAAAAAAUGAAAUGUCACGGGAUACAGUUACACUGAGAGUUUUAAAAGAAAGCUGGAUUCUGGUCCCAGCCCAGUGUCCCCAGGCUGCAGAGCGGGGAGGAGCCAACAGAGGAUUGAGCAUCA
B14: chr7:140404665:140404666:+_ENSG00000090266_ENST00000247866|hu_hu|hu_hu_hu_mus_False|8_18 (ssRNA)
RNA: GGGAGUUCUACAGUCCGACGAUCUGCUCCUACUCGUCCAGAGAGUUUACAGUGUCAGUCCUCGUCAUCAGGAGGGAUUCCCAGUUCUUCAUCUGUCCACUGUGAAGGAUCUGGAUACGGAAAGUGACCCAGCACCUCAUCCGACAACAGAGGAUUGAGCAUCA

Some of the results follow.

This experiment deals with T1, UNK ZnF1-3 (human, UniProt Q9C0B0 31-174).
T1 sequence: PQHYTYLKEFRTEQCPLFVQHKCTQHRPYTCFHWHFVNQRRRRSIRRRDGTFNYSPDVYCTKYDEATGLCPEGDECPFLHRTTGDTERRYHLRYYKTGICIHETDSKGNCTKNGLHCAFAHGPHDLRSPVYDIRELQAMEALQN
Put plainly: nsRBNS (natural sequence RNA bind-n-seq); RBNS binding buffer (assumed for nsRBNS): 25 mM Tris pH 7.5, 150 mM KCl, 3 mM MgCl2, 0.01% Triton X-100, 500 ug/ml BSA, 20 U/ml SUPERase-In, 4 C; UNK is unkempt and MSI1 is Musashi-1; names of the RNAs are library labels; protein concentration not given here; high values mean tight binding.
On to B1, for which the binding signal worked out at 1.13 enrichment R. For B2 the value was 0.695 enrichment R.

The molecule B3 yielded a binding signal of 0.909 enrichment R.

In turn, B4 came in with a binding signal of 0.777 enrichment R. Then B5, with 0.869 enrichment R.

As for B6, the binding signal stood at 1.46 enrichment R. Molecule B7 came in with a binding signal of 0.724 enrichment R. Molecule B8 displayed a binding signal of 0.73 enrichment R.

B9 yielded a binding signal of 1.66 enrichment R. For B10, the binding signal stood at 1.34 enrichment R. The molecule B11 returned a binding signal of 0.878 enrichment R.

For the molecule B12, the binding signal was determined as 0.97 enrichment R. Regarding B13, the binding signal stood at 1.62 enrichment R.

As to B14, the binding signal worked out at 1.24 enrichment R.

For the origin of these results see paper PMC12136788.
